# Experimental data: PubChem BioAssay AID686979 (National Center for Advancing Translational Sciences (NCATS), 2013)
# About 50,000 (12%) of roughly 420,000 compounds were called active. Inconclusive means that the source gave no clear call. Such entries were picked first, then a sample of the others. The call rests on the fitted dose curve; in most records, active means well fitted inhibition curve with a large enough effect; inconclusive means small, poorly fitted or top-dose-only effect; inactive means flat fitted curve, though single readings scatter. Potencies of inconclusive entries are left out as doubtful fits.
# Experiment: qHTS for Inhibitors of human tyrosyl-DNA phosphodiesterase 1 (TDP1): qHTS in cells in presence of CPT; further: nearly all actives have a fitted effect of over 55% in size
# Details: chicken DT40 Tdp1-/-;hTDP1 cells + 20 nM CPT, ATP luminescence, 48 h; series mostly up to 46.2 µM
# Outline: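 Cell growth measured by CellTiter-Glo luminescence after a minimum 48 h, 37 C compound exposure with 20 nM CPT in Tdp1-knockout DT40 cells stably expressing hTDP1, seeded 400/well; qHTS titration format.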
# Potency means the concentration at half of the fitted maximal effect; tags describe the fitted curve by direction and shape.
row,SMILES,Potency
1,CC(C)CC1C(=O)N(Cc2cn(CCC3OCCO3)nn2)CCS(=O)(=O)N1Cc1ccc(-c2ccncc2)cc1 (centres undefined),"inconclusive [inhibitor, single point]"
2,Cc1c(NC(=O)COC(=O)C2(c3ccc(F)cc3)CCCC2)c(=O)n(-c2ccccc2)n1C,inactive
3,O=S(=O)(c1ccc(Cl)s1)N1CCC2(CC1)OCCO2,inactive
4,Cc1ccc(NC(=O)CSC2=C(C#N)C(c3ccc4c(c3)OCO4)C3=C(CCCC3=O)N2)c(C)c1 (centres undefined),"inconclusive [inhibitor, single point]"
5,O=C(COC(=O)c1ccc(Br)cc1)NCCC1=CCCCC1,inactive
6,Cc1cccc(N2CCN(C(=O)CNC(=O)c3cccc([N+](=O)[O-])c3)CC2)c1C,"inconclusive [inhibitor, single point]"
7,COC(=O)[C@@H]1[C@H]2C[C@H]3c4[nH]c5ccccc5c4CCN3C[C@H]2CC[C@@H]1O,inactive
8,O=C(CCC(=O)N(CC(=O)NC1CCCCC1)c1ccc2c(c1)OCO2)Nc1ccccn1,"inconclusive [inhibitor, single point]"
9,O=S(=O)(CS(=O)(=O)Oc1ccccc1)Oc1ccccc1,inactive
10,CCn1c2ccccc2c2cc(NC(=O)COC(=O)c3ccc(NC(=O)CC#N)cc3)ccc21,inactive
11,CCn1ccnc1CN1CCCCC1C(=O)Nc1ccc(Oc2cccnc2)cc1 (centres undefined),"inconclusive [inhibitor, single point]"
12,CCCCOc1ccc(CN(C)c2ncnc(N)n2)cc1,"inconclusive [inhibitor, single point]"
13,COc1ccc(CCNC(=O)c2cc3c(-c4ccc(OC)c(OC)c4)nn(C)c3s2)cc1OC,active: 2.59 µM
14,CC(C)=CCC/C(C)=C/CNC(=O)C[C@H]1C[C@H](C(=O)N2CCCCC2)[C@@]2(CCc3ccccc3)c3[nH]c4cc(CCC(=O)N(C)C)ccc4c3CCN2C1=O,active: 10.3 µM
15,CCOC(=O)/C(=N\Nc1ccccc1Cl)N1CCN(C)CC1,"inconclusive [inhibitor, single point]"
16,Fc1ccc2c(c1)C(c1ccncc1)=NNC(c1cccnc1)=N2,inactive
17,Cc1cnc(NC(=O)CN2CCN(c3ccccc3F)CC2)s1,"inconclusive [inhibitor, full curve, poor fit]"
18,Cc1ccc(Cl)cc1N1CCN(C(=O)c2ccc(CS(=O)(=O)c3ccc(Br)cc3)o2)CC1,"inconclusive [inhibitor, partial curve, poor fit]"
19,N=C1C(c2nc(-c3ccc(Cl)cc3)cs2)=C(O)CN1CCCN1CCOCC1,active: 25.9 µM
